Where “and” joins values, the source holds several entries; their conditions need not be identical. Equal entries are not always repeated. Among all 110,000 compounds or so, about 230 (0.21%) showed an effect of 50% or more. Some of the results follow.
These compounds were tested against DPAP1 (Plasmodium falciparum, UniProt Q8IIJ9) (assay: primary screen, percent inhibition; read by cleavage of a fluorogenic dipeptide substrate; higher = more effect of the substance).
Parameters: species or system P. falciparum D10 trophozoite lysates; single well
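Also: 30 min substrate incubation versus DMSO and 10 µM JCP410 controls.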

Sequence of DPAP1 (Q8IIJ9 whole entry, looked up): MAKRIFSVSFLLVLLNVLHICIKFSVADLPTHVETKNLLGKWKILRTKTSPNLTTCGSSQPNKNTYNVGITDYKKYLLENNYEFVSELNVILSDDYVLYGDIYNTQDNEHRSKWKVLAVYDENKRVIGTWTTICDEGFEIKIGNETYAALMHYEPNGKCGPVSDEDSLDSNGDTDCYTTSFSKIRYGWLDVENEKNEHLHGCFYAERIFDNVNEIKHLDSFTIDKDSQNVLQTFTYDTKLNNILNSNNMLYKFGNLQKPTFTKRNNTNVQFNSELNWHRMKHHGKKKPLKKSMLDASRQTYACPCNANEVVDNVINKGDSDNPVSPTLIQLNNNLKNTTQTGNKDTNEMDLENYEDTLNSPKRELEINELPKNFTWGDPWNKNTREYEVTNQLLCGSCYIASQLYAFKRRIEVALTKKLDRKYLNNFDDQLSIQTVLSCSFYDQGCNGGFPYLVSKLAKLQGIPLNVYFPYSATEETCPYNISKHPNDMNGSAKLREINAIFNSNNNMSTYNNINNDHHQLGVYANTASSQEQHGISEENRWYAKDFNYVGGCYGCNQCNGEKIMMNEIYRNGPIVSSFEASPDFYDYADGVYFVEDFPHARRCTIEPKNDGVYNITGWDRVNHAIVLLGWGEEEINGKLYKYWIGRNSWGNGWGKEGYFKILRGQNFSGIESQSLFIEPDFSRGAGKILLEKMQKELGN

Structure (SMILES) | % Inhibition @ 10 uM
CC(O)CN(Cc1ccc(F)c(Br)c1)CC(C)O (stereo not shown) | -1.21%
C=CCN1C(=S)NC2CC1(C)Oc1c(OC)cccc12 (stereo not shown) | -2.01%
CN(C(=O)C(CC1CCCCC1)C(=O)NCC#N)C(C)(C)C (stereo not shown) | -5.21%
COc1cc(NC(=O)c2ccc(Cl)cc2)c(Cl)cc1NC(=O)c1cccnc1 | 0.408%
CC(C)N1CCN(c2ccc(C(=O)N3CCCC3)cn2)CC1 | 1.94%
Cc1ccc(/C=C2\C(=O)C3CCN2CC3)cc1 | -3.23%
CC(C)NS(=O)(=O)c1ccc(N2CCN(C)CC2)nc1 | -9.08%
COc1ccc2ccccc2c1C1C(C#N)=C(N)Oc2[nH]nc(C(C)(C)C)c21 (stereo not shown) | 2.68%
Cc1nn(CCCC(=O)NCCCOC(C)C)c(=O)c2cc3sccc3n12 | 4.95%
CC(=O)C1=C(C)N=C2C(=C(O)c3ccccc32)C1c1ccc(Br)cc1 (stereo not shown) | 1.57%
Cc1cccc(Cc2c(C)nc3nc(SCC(=O)N4CCCC4)nn3c2C)c1 | -2.04%
CCSc1nc(O)c2c(n1)-c1ccccc1CC21CCCC1 | -0.436%
CCOC(=O)Nc1sc(C(=O)OCC)c(C)c1C(=O)OCC | 16.1%
O=C(Cn1ccc2ccccc2c1=O)NCc1ccc2c(c1)OCO2 | -1.51%
CC(=O)Nc1ccc(N2C(=O)NC(NC(=O)c3ccccc3)(C(F)(F)F)C2=O)cc1 (stereo not shown) | 1.61%
CC(C)CCNC(=O)C1CCCN1S(=O)(=O)c1cccc2nsnc12 (stereo not shown) | 1.26%
COc1cc2ccccc2cc1C(=O)NCCOC12CC3CC(CC(C3)C1)C2 | 5.38%
O=C(O)c1ccc(NC(=O)c2ccc([N+](=O)[O-])cc2)cc1 | -6.82%
O=c1c(Cc2cc(Cl)cc(Cl)c2O)c(O)nc2n1CCCS2 | 4.41%
CCn1nccc1C(=O)Nc1ccc(C)c(F)c1 | 1.19%
Nc1nonc1-c1nc2ccccc2n1CC(=O)NCc1ccccc1 | -3.63%
CN(C)CCCN(CCCN(C)C)Cc1ccc(Br)cc1 | -3.57%
CC(C)=CCCC1(C)OC(=O)N(CCNC(=O)c2ccnn2C)C1(C)O (stereo not shown) | 2.36%
COc1cccc(OC)c1C(=O)Nc1nc2c(s1)CCCC2 | -0.865%
CC1CC(C)CN(Cc2csc3c2CCCC3)C1 (stereo not shown) | 3.88%

Structure (SMILES) | % Inhibition @ 10 uM
Cc1oc(-c2ccccc2F)nc1CN1CCC(C(=O)NC2CCCc3ccccc32)CC1 (stereo not shown) | -2.85%
CCN(CCN(C)C)Cc1ccc(Br)cc1 | -6%
CCC1CCc2c(sc(NC(=O)C3C4CCC(O4)C3C(=O)O)c2C(N)=O)C1 (stereo not shown) | -2.32%
CCOC(=O)c1sc(NC(=O)CN2CCCCC2)c(C(=O)OCC)c1C | -2.59% and -5.39%
COc1ccc(CN(C)C2CCN(C)CC2)cc1OC | -4.94%
COc1ccc(C2(C)CCc3oc4ccccc4c3-c3oc(C)cc32)cc1 (stereo not shown) | 0.345%
COc1ccc(CN2CCC(=O)NC2=O)cc1 | -5.64%
Cc1ccc(C(=O)NCCN2CCN(C(=O)c3ccc(C)c(C)c3)CC2)cc1C | -5.23%
COc1cc(C=C2C(=O)N(C)C(=O)N(C)C2=O)cc(Cl)c1OCCOc1ccc(C)cc1 | -2.26%
COc1nc(C)nc(N(C)C(=O)NS(=O)(=O)Nc2ccc(Br)cn2)n1 | -4.61%
COc1ccccc1-c1nc2s/c(=C\c3ccc(C)cc3)c(=O)n2n1 | -2.98%
Clc1ccc(CN2CCN(Cc3ccccc3)CC2)cc1 | 1.55%
COc1ccccc1-c1cc(C(=O)Nc2cc(C)on2)no1 | 3.89%
Cc1[nH]c2ccc(-c3nnc(SCC(=O)NCc4ccco4)n3Cc3ccccc3)cc2c1C | -3.21%
CCOc1ccc(S(=O)(=O)N2CCCCC2)cc1-c1nc(O)c2c(n1)c(C(C)(C)C)nn2C | 3.47%
CC1(C)C2CCC1(C)C(NCc1ccccc1)C2 (stereo not shown) | -3.46%
CC(CCc1ccco1)NC(=O)Cn1ncc2c(=O)oc3ccccc3c21 (stereo not shown) | -2.16%
O=C(NCc1ccc(Cl)cc1)c1cc2nc(C(F)F)cc(C(F)F)n2n1 | 4.83%
CCC(=O)c1cc(C(C)(C)C)c(O)c(C(C)(C)C)c1 | -7.25%
CC(=O)C1=C(C)NC(C)=C(C(C)=O)C1c1ccccc1C | -4.76%
Cc1cc(-c2ccc(F)cc2)c(C#N)c(N)n1 | -5.48%
Cc1cccc(C(=O)N(Cc2ccco2)Cc2ccccc2Cl)c1 | 2.89%
O=C(CCSc1nc2ccccc2o1)Nc1ccccc1Cl | 0.408%
CC1CCCN(S(=O)(=O)c2cccc(-c3cn4cccnc4n3)c2)C1 (stereo not shown) | 0.0539%
O=C(O)c1ccccc1C(=O)N1CCSC1c1ccccc1 (stereo not shown) | 3.18%

Structure (SMILES) | % Inhibition @ 10 uM
Cc1ccc(-c2cn3nc(N4CCCC(C(=O)NCCCN5CCOCC5)C4)sc3n2)cc1 (stereo not shown) | -0.35%
COc1cccc(C(=O)Nc2cccc(F)c2)c1 | -9.68%
CC1CCCCN1C(=O)c1cc2nc(-c3ccc(F)cc3)cc(C(F)(F)F)n2n1 (stereo not shown) | -1.51%
Cc1c(C)n(C)c2ccc(C(=O)NCC(C)c3ccccc3)cc12 (stereo not shown) | -5.89%
O=C(CN(c1ccc(F)cc1)S(=O)(=O)c1ccc2c(c1)OCCO2)Nc1ccc(F)cc1F | -3.65%
O=C(Nc1ccccn1)c1cccc(S(=O)(=O)N2CC(c3ccccc3)CC2=O)c1 (stereo not shown) | 4.19%
O=C(O)CNC(=O)/C=C\c1ccccc1 | -6.4%
Cn1nnc(NC(=O)CSc2nnnn2-c2ccc(F)cc2)n1 | 2.57%
Cc1ccc(-c2c(C)s/c(=N\C(=O)c3ccco3)n2C)cc1 | 1.17%
Cc1cc(Cl)ccc1OCC(=O)Nc1ccc(S(=O)(=O)N2CCCC2)cc1 | -8.01%
C=CCn1c(SC(C)CC)nc(O)cc1=O (stereo not shown) | -4.91%
NS(=O)(=O)c1ccc(CCNC(=O)CSc2nncn3c2cc2sccc23)cc1 | 1.97%
COc1ccccc1OCc1ccc(C(=O)N2CCOCC2)o1 | -4.65%
Cc1cc(C)nc(SCCCn2c(N3CCC(C(N)=O)CC3)nc3c2c(=O)[nH]c(=O)n3C)n1 | 2.41%
CC1=C(C(=O)OCC(C)C)C(c2ccccc2Cl)NC(=O)N1 (stereo not shown) | 5.92%
Cc1ccc(-n2nc3ccc(NC(=O)c4ccco4)cc3n2)cc1C | 1.67%
COc1ccc(-c2nn(C)c(=O)c3ccccc23)cc1CNC(=O)NC1CCCCC1 | 3.72%
CC(=O)Nc1ccc(NC(=O)COc2cc(C)ccc2C)cc1 | -1.84%
Cc1ccc(-c2nc(CSCC(=O)NCCN3CCN(Cc4ccccc4)CC3)c(C)o2)cc1 | -4.71%
CCc1ccc(-n2nc(C)c3c(C)cc(=O)oc32)cc1 | 4.65%
O=C(CN1CCc2ccccc2C1)N1CCCc2c1c(=O)oc1ccc(OCc3ccccc3)cc21 | -3.74%
CCN1CCCC1CNC(=O)c1sc2nc3n(c(=O)c2c1C)CCCCC3 (stereo not shown) | 0.658%
CCOc1ccccc1C(=O)Nc1cccc(C)c1C | -1.61%
CCc1ccc(Oc2nc3ccccn3c(=O)c2/C=C(\C#N)C(=O)NC2CCCCC2)cc1 | 4.99%
COc1cc(C2c3c(-c4ccccc4O)n[nH]c3C(=O)N2CCCO)cc(Br)c1O (stereo not shown) | 0.366%

Structure (SMILES) | % Inhibition @ 10 uM
CC(C(=O)O)N(C(=O)c1ccccc1)c1ccc(Cl)c(Cl)c1 (stereo not shown) | 3.98%
C/C(=C\c1cccc2ccccc12)C(=O)c1c(C)cc(C)nc1O | -1.5%
c1ccc2nc3c(nc2c1)sc1nc2ccccc2n13 | 1.49%
CCOC(=O)c1c(C)oc2cc(Br)c(O)c(C=O)c12 | 1.39%
Cc1sc(NC(=O)c2ccco2)c(C(c2ccccn2)N2CCN(C)CC2)c1C (stereo not shown) | 6.94%
CC1CCC(N2CC(C)OC(C)C2)C1 (stereo not shown) | 1.9%
O=C(NC12CC3CC(CC(C3)C1)C2)c1cncc(Br)c1 | 3.9%
COC(=O)c1c(NC(=O)c2nc(SC(C)C)ncc2Cl)sc2c1CCCC2 | 0.758%
COc1ccc(NC(=O)C23CC4CC(C2)CC(n2cnc(Br)n2)(C4)C3)cc1OC | -11.9%
COc1ccc2nc(N3CCCC(C(=O)NC4CCCCCCC4)C3)sc2c1 (stereo not shown) | 1.83%
NS(=O)(=O)c1ccc(NS(=O)(=O)c2ccc(NC(=O)c3ccccc3)cc2)cc1 | 5.03%
O=C(O)c1cc(-c2ccc(/C=C3/NC(=O)N(Cc4ccc(Cl)cc4)C3=O)o2)ccc1Cl | -3.06%
COc1ccc(Br)cc1/C=C1\N=C(c2ccc(Br)o2)OC1=O | -2.23%
COc1cc(C2=N/C(=C\c3cccc(Cl)c3Cl)C(=O)O2)cc(OC)c1OC | -7.76%
CC(C)Cn1c2c(c(=N)c3c1CCC3)CCCC2 | -2.65%
Cc1cc(C)cc(Oc2nc3ccccn3c(=O)c2/C=C(\C#N)C(=O)NCC2CCCO2)c1 (stereo not shown) | -5.1%
COc1ccc(N2CCN(CC(O)COc3ccccc3C)CC2)cc1 (stereo not shown) | -1.22%
Cc1sc2ncn(CC(=O)NCc3ccccc3)c(=O)c2c1-c1ccc(Br)cc1 | -3.41%
Cn1cc(Cl)c(C(=O)NCC(=O)c2ccccc2)n1 | -3.13%
CC1CCN(C(=O)CSc2nc3c(c(=O)n2CCc2ccccc2)SCC3)CC1 | -8.38%
COc1ccc(CNC2CCCCC2C)cc1C (stereo not shown) | -6.08%
C=CCSc1ncc(Cl)c(C(=O)Nc2nnc(CC)s2)n1 | -2.71%
CC(=O)Nc1ccc(-c2nc3ccccc3o2)cc1 | -7.6%
Fc1ccccc1C1Nc2ccccc2C2C=CCC21 (stereo not shown) | 2.08%
Cc1ccc(C2=NS(=O)(=O)N(C)C(C(=O)NC(C)c3ccccc3)=C2)cc1 (stereo not shown) | 0.655%
